The record followed here is the supplement of paper PMC3334620.

Whole data set: some 33,000 sequences, median “E-score (-0.5 to 0.5)” near -0.013, cut for the highest 2% near 0.3. Some of the results follow.

This assay addresses T1, Msn1 (UniProt P22148).
T1 sequence: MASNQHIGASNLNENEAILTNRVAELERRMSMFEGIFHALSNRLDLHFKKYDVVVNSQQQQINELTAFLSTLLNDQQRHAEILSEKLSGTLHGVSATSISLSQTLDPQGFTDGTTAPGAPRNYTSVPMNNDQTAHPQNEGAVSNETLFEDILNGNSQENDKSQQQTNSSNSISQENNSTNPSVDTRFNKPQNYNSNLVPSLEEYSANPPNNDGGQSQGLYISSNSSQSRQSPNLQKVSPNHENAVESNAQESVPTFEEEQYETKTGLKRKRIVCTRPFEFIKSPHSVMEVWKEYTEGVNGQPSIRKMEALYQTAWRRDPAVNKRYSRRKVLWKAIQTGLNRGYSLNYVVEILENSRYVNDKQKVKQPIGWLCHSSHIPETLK
The experiment in a line: PBM E-score (8-mer binding enrichment) (E-score (-0.5 to 0.5)); higher = stronger / more preferred TF binding; most listed sequences are background and not binding sites. The settings on record: protein concentration: 200 nM; construct: GST-full length. Summed up: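 Masliner-normalised scans of fluorescent anti-GST signal were the basis for scoring. That signal came from GST-tagged yeast transcription factors applied at about 100-200 nM to double-stranded universal all-10-mer Agilent arrays on fresh or once-stripped slides. Each ungapped eight-base word, pooled with its reverse complement, received an E-score from the Universal PBM Analysis Suite.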
Take ATAGGCTC: the “PBM E-score” value was -0.101.
On to CCAAGAGC, for which the “PBM E-score” value was -0.158.
As for CCGGGAGA, the “PBM E-score” value amounted to 0.0505.
Under GTCTTAAC stands 0.224; under CAATTTAC, 0.149.
Regarding CCCCAGTA, the “PBM E-score” value is -0.194.
Under TAAACTAA stands 0.107; under CGAAGAAA, 0.124; under AGTGATCC, -0.0695.
Under ACGGGTGA stands -0.0427.
For the sequence CGTCTTCA, the “PBM E-score” value was -0.00289.
For GCCCACGC, the “PBM E-score” value is -0.264.
For the sequence AAATGTAC, the “PBM E-score” value came out at 0.371.
As for ACGAGTCA, the “PBM E-score” value was -0.131.
Under CATAATTC stands 0.107; under TCACACCA, 0.0145.
Under GACGACTA stands 0.0147.
Under ACACTATC stands 0.0359; under AGCCGGTC, -0.0936.
For CCTCTCCA, the “PBM E-score” value was -0.254.
In the case of CAGAATGC, the “PBM E-score” value was -0.094.
With AAATTCCG, the “PBM E-score” value was 0.291.
Under TGCCGGAA stands 0.2.
Under GATCCACA stands -0.0112.
Under GCTGTTTA stands -0.0101.
Take AGAAGTCG: the “PBM E-score” value was -0.0345.
Take CATGTCTA: the “PBM E-score” value was 0.268.
Under GTGGGCTA stands -0.0795; under CCCACCGG, -0.134; under GTGGATGA, -0.0859.
Under ACATGCAT stands 0.164.
Consider CGCCTGTA, for which the “PBM E-score” value worked out at 0.0731.
Under ATCCGGAG stands 0.143; under AAACAATG, 0.087; under AATAAATG, 0.209.
Turning to CGGGCTGA, the “PBM E-score” value is -0.283.
AGACTTAA: the “PBM E-score” value was 0.102.
In the case of CGGCGAAA, the “PBM E-score” value was 0.223.
For AATCTTAA, the “PBM E-score” value came out at 0.173.
Under AGAAATAA stands 0.077; under GCCATAGA, -0.127.
With AATGGTGA, the “PBM E-score” value was 0.00797.
Under TACGCTGA stands 0.0614; under ACAGGAGT, -0.102.
Under AGCACGGC stands -0.0863.
With ACTTAGAA, the “PBM E-score” value amounted to 0.0179.
Under GAGTCCCC stands -0.357.
Under ATCCAATC stands -0.0229; under CAGCCTGA, -0.0899.
Under CCCATAAA stands -0.0692.
Consider ACTTTTAC, for which the “PBM E-score” value is 0.204.
Turning to TTATGGAA, the “PBM E-score” value was -0.0572.
Under GTCAGAGA stands 0.0303.
Regarding ATGCAAAC, the “PBM E-score” value is -0.207.
Take ATTGACGA: the “PBM E-score” value is 0.0543.
Under CGGTGTAA stands -0.0479; under AAAGTATT, 0.153.
Under CACGCGCC stands 0.0461; under GGTATAGA, 0.0249; under ATTCGATC, 0.0513.
Under ACTGAAGT stands -0.0723; under GACAGGCA, 0.0847.
Turning to GTGGGTAA, the “PBM E-score” value is -0.0702.
Under ATCATAAG stands 0.15; under TAGGCCAA, 0.0699; under AGCCCCGA, -0.071.
Under GAGCAGGC stands -0.0987; under GTTGGGAA, -0.00649.
Under GAACAGAC stands 0.142; under GGGATATA, 0.0266.
With AGCCGGGC, the “PBM E-score” value is -0.258.
Under CGCTCAAC stands -0.128.
Regarding AGCAGGAT, the “PBM E-score” value was -0.0352.
Consider ACCCCCGC, for which the “PBM E-score” value is -0.282.
Under ACATTCGA stands 0.139; under ATAATAAT, 0.169.
Under GGCTGCAC stands -0.107; under GGCATTAA, -0.0574; under GATGCTTA, -0.0375.
Consider AGTCAACC, for which the “PBM E-score” value is -0.25.
Under GCGCAGAA stands 0.0474.
As to AAGTATCT, the “PBM E-score” value was found to be 0.00333.
Regarding ATGTTTAC, the “PBM E-score” value was -0.0971.
For the sequence CACGTCAG, the “PBM E-score” value is -0.0844.
Under ATAACTAA stands 0.0832; under CGTAGGAG, -0.132; under ACTGGTCC, -0.0866.
Under GGAGGTGA stands -0.0056.
On to TCCATCAA, for which the “PBM E-score” value came to 0.145.
Under AAACCTTG stands -0.143; under CCACGAAG, -0.0733.
Under ATCCGAGC stands 0.0585; under CTTTACCA, -0.08.
Take CCGTGCCG: the “PBM E-score” value is -0.00474.
As to AGACTAAA, the “PBM E-score” value was determined as 0.115.
Under CACGCCAG stands -0.286; under CGTACAAA, 0.356.
Take CCTGCCCG: the “PBM E-score” value is -0.0502.
As to AGAATGTG, the “PBM E-score” value was -0.172.
For the sequence GTGAGATA, the “PBM E-score” value was -0.0382.
As for GGTGTTTA, the “PBM E-score” value is -0.00646.
For GAGCAAGA, the “PBM E-score” value is 0.0122.
Take CAGCCTCG: the “PBM E-score” value came to 0.0786.
Under CCGAGAGG stands -0.0358; under GTTCGGGA, 0.199.
Under CAGAAGAG stands -0.172.
Under ACTATCTA stands 0.13; under ATTCCGTG, 0.117; under AAATTTGT, 0.363.
For GAGAAGAC, the “PBM E-score” value was -0.162.
